Our source for the cAMP reporter score and surface expression score values is the GPR68 mutational scans of Howard et al. (2025).

Scores whose standard error is large were omitted. Two further conditions of the source, in which the scores hardly spread, are not listed. Names with del lack the residues named; names with ins carry added residues between the positions named. For part of these data: The concentration of ogerin is not given here.

B1: GPR68, Q15743 (parent)
chain: MGNITADNSSMSCTIDHTIHQTLAPVVYVTVLVVGFPANCLSLYFGYLQIKARNELGVYLCNLTVADLFYICSLPFWLQYVLQHDNWSHGDLSCQVCGILLYENIYISVGFLCCISVDRYLAVAHPFRFHQFRTLKAAVGVSVVIWAKELLTSIYFLMHEEVIEDENQHRVCFEHYPIQAWQRAINYYRFLVGFLFPICLLLASYQGILRAVRRSHGTQKSRKDQIQRLVLSTVVIFLACFLPYHVLLLVRSVWEASCDFAKGVFNAYHFSLLLTSFNCVADPVLYCFVSETTHRDLARLRGACLAFLTCSRTGRAREAYPLGAPEASGKSGAQGEEPELLTKLHPAFQTPNSPGSGGFPTGRLA

Series [1] covers variants of B1. The experiment in a line: cAMP reporter score (Enrich2 score, wild type = 0); higher = more signal; HEK293T, FACS bins.
Variants of B1 are the subject of series [2]. In words: surface expression score (Enrich2 score, wild type = 0); higher = more signal; HEK293T, FACS bins.

Regarding C304_A306del, the cAMP reporter score is 0.973 in series [1] (pH 5.5); 0.148 in series [1] (pH 6); 0.612 in series [1] (pH 6, modulator: ogerin); -0.266 in series [1] (pH 6.5, modulator: ogerin). Moreover, the surface expression score in series [2] was found to be 0.363.

Consider L308_T309insGS, for which the cAMP reporter score in series [1] (pH 5.5) worked out at 0.865; in series [1] (pH 6), 4.16; in series [1] (pH 6, modulator: ogerin), 2.27; in series [1] (pH 6.5, modulator: ogerin) it was 2.31. Also, in series [2], the surface expression score turned out to be 0.053.

With L308_T309del, the cAMP reporter score in series [1] (pH 5.5) is 1.14; in series [1] (pH 6), 1.34; in series [1] (pH 6, modulator: ogerin), 0.887; in series [1] (pH 6.5, modulator: ogerin) it was 1.59. For the same variant, the surface expression score in series [2] is 1.28.

On to C304_L305insGSG, for which the cAMP reporter score came out at 0.198 in series [1] (pH 5.5); 0.496 in series [1] (pH 6, modulator: ogerin); 0.508 in series [1] (pH 6.5, modulator: ogerin). Moreover, in series [2], the surface expression score came out at 0.368.

On to A306del, for which the cAMP reporter score in series [1] (pH 5.5) is -0.124; in series [1] (pH 6) it was -0.933; in series [1] (pH 6, modulator: ogerin), -0.158; in series [1] (pH 6.5, modulator: ogerin) it was -0.717. Also, in series [2], the surface expression score is -0.931.

Turning to A306_L308del, the cAMP reporter score in series [1] (pH 5.5) was 0.391; in series [1] (pH 6) it was -0.23; in series [1] (pH 6, modulator: ogerin), 0.174; in series [1] (pH 6.5, modulator: ogerin), 0.316. In addition, in series [2], the surface expression score is -0.179.

Consider C310D, for which the cAMP reporter score stood at 1.32 in series [1] (pH 5.5); 1.41 in series [1] (pH 6, modulator: ogerin); 1.69 in series [1] (pH 6.5, modulator: ogerin). In addition, the surface expression score in series [2] amounted to 0.376.

As to C310E, the cAMP reporter score in series [1] (pH 5.5) is -0.34; in series [1] (pH 6), 0.517; in series [1] (pH 6, modulator: ogerin) it was -0.58; in series [1] (pH 6.5, modulator: ogerin), 0.182. Moreover, the surface expression score in series [2] was -0.721.

For the variant C310F, the cAMP reporter score in series [1] (pH 5.5) was -0.263; in series [1] (pH 6) it was 0.677; in series [1] (pH 6, modulator: ogerin), -0.267; in series [1] (pH 6.5, modulator: ogerin) it was 0.172. Also, the surface expression score in series [2] is 0.116.

Regarding C310A, the cAMP reporter score in series [1] (pH 5.5) amounted to 0.743; in series [1] (pH 6), 2.09; in series [1] (pH 6, modulator: ogerin) it was 0.968; in series [1] (pH 6.5, modulator: ogerin) it was 1.84. Moreover, the surface expression score in series [2] worked out at 0.415.

In the case of C304del, the cAMP reporter score in series [1] (pH 5.5) is -0.241; in series [1] (pH 6) it was -0.303; in series [1] (pH 6, modulator: ogerin), -0.518; in series [1] (pH 6.5, modulator: ogerin) it was -0.678. For the same variant, the surface expression score in series [2] is 0.259.

A306_F307insG: the cAMP reporter score in series [1] (pH 5.5) was 0.102; in series [1] (pH 6) it was -0.361; in series [1] (pH 6, modulator: ogerin), 0.385; in series [1] (pH 6.5, modulator: ogerin) it was 0.385. The surface expression score in series [2] was 0.121.

On to C304_L305insG, for which the cAMP reporter score in series [1] (pH 5.5) was 0.197; in series [1] (pH 6) it was 0.355; in series [1] (pH 6, modulator: ogerin) it was -0.015; in series [1] (pH 6.5, modulator: ogerin), -0.211. Further, the surface expression score in series [2] is -0.974.

As for A306_F307insGSG, the cAMP reporter score in series [1] (pH 5.5) was 0.842; in series [1] (pH 6) it was 0.248; in series [1] (pH 6, modulator: ogerin) it was 0.937; in series [1] (pH 6.5, modulator: ogerin) it was 0.193. Besides, the surface expression score in series [2] is 0.456.

On to L305del, for which the cAMP reporter score in series [1] (pH 5.5) was -0.792; in series [1] (pH 6) it was -1.03; in series [1] (pH 6, modulator: ogerin), -1.09; in series [1] (pH 6.5, modulator: ogerin), -1.23. For the same variant, in series [2], the surface expression score was -1.16.

T309C: the cAMP reporter score worked out at 1.03 in series [1] (pH 5.5); 1.17 in series [1] (pH 6, modulator: ogerin); 0.83 in series [1] (pH 6.5, modulator: ogerin). In addition, the surface expression score in series [2] stood at 0.87.

For T309V, the cAMP reporter score was -0.528 in series [1] (pH 5.5); -0.432 in series [1] (pH 6); -0.895 in series [1] (pH 6, modulator: ogerin); -1.65 in series [1] (pH 6.5, modulator: ogerin). Further, the surface expression score in series [2] was 0.384.

In the case of T309D, the cAMP reporter score in series [1] (pH 5.5) worked out at 0.659; in series [1] (pH 6) it was 0.377; in series [1] (pH 6, modulator: ogerin), 0.694; in series [1] (pH 6.5, modulator: ogerin), 1.29. Further, the surface expression score in series [2] is 0.48.

Turning to T309L, the cAMP reporter score was 0.669 in series [1] (pH 5.5); -0.084 in series [1] (pH 6); 0.608 in series [1] (pH 6, modulator: ogerin); 0.52 in series [1] (pH 6.5, modulator: ogerin). Besides, in series [2], the surface expression score is -0.474.

Turning to T309S, the cAMP reporter score in series [1] (pH 5.5) was 0.609; in series [1] (pH 6) it was 0.845; in series [1] (pH 6, modulator: ogerin), 0.559; in series [1] (pH 6.5, modulator: ogerin), 0.527. Further, the surface expression score in series [2] was -0.099.

Turning to T309E, the cAMP reporter score was 1.54 in series [1] (pH 5.5); -0.439 in series [1] (pH 6); 0.86 in series [1] (pH 6, modulator: ogerin); 0.87 in series [1] (pH 6.5, modulator: ogerin). Also, the surface expression score in series [2] is 0.23.

With T309A, the cAMP reporter score in series [1] (pH 5.5) is -0.845; in series [1] (pH 6) it was -1.77; in series [1] (pH 6, modulator: ogerin), -0.092; in series [1] (pH 6.5, modulator: ogerin), -0.676. In addition, in series [2], the surface expression score was -0.153.

Regarding T309P, the cAMP reporter score in series [1] (pH 5.5) was 0.518; in series [1] (pH 6) it was 0.064; in series [1] (pH 6, modulator: ogerin), -0.174; in series [1] (pH 6.5, modulator: ogerin), 0.211. In addition, the surface expression score in series [2] is -0.279.

As to T309M, the cAMP reporter score in series [1] (pH 5.5) was 1.83; in series [1] (pH 6), 2.55; in series [1] (pH 6.5, modulator: ogerin) it was -0.432. Moreover, the surface expression score in series [2] was -0.389.

As to T309W, the cAMP reporter score was 0.965 in series [1] (pH 5.5); -0.065 in series [1] (pH 6, modulator: ogerin); -0.432 in series [1] (pH 6.5, modulator: ogerin). Besides, the surface expression score in series [2] is -0.395.

Take T309I: the cAMP reporter score in series [1] (pH 5.5) is -0.553; in series [1] (pH 6), -0.253; in series [1] (pH 6, modulator: ogerin), -0.707; in series [1] (pH 6.5, modulator: ogerin), -0.497. Moreover, the surface expression score in series [2] was -0.771.

Take T309N: the cAMP reporter score was 0.407 in series [1] (pH 5.5); -0.215 in series [1] (pH 6); 0.229 in series [1] (pH 6, modulator: ogerin); 0.496 in series [1] (pH 6.5, modulator: ogerin). Also, the surface expression score in series [2] was 0.166.

As to T309H, the cAMP reporter score stood at 0.013 in series [1] (pH 5.5); 1.46 in series [1] (pH 6); 0.199 in series [1] (pH 6, modulator: ogerin); 0.742 in series [1] (pH 6.5, modulator: ogerin). The surface expression score in series [2] is -0.186.

Take T309Y: the cAMP reporter score was 0.69 in series [1] (pH 5.5); -0.076 in series [1] (pH 6); 0.312 in series [1] (pH 6, modulator: ogerin); 0.195 in series [1] (pH 6.5, modulator: ogerin). Besides, the surface expression score in series [2] was -1.01.

In the case of T309K, the cAMP reporter score in series [1] (pH 5.5) is -0.221; in series [1] (pH 6) it was 0.079; in series [1] (pH 6, modulator: ogerin), -0.639; in series [1] (pH 6.5, modulator: ogerin), -0.085. In addition, the surface expression score in series [2] is -1.05.

Turning to T309G, the cAMP reporter score came to 0.455 in series [1] (pH 5.5); 0.997 in series [1] (pH 6); 0.454 in series [1] (pH 6, modulator: ogerin); 1.21 in series [1] (pH 6.5, modulator: ogerin). The surface expression score in series [2] amounted to 0.179.
